The source of these data is PMC4336329 (PLoS ONE, 2015).

Hit rate of the full screen: of about 310,000 compounds, about 2,200 (0.71%) showed an effect of 50% or more. Effects have a minus sign here. This is one part of the list. Where a SMILES comes first, the peptide text is derived from it. [ ]: non-standard residue; d: D form. The star is where a group is joined. Phe(4-Me) = Cc1ccc(C[CH](N)C(=O)O)cc1; Bz = O=C(c1ccccc1)*

Chain of human ether-à-go-go-related gene (hERG) potassium channel (Q12809 whole entry, looked up): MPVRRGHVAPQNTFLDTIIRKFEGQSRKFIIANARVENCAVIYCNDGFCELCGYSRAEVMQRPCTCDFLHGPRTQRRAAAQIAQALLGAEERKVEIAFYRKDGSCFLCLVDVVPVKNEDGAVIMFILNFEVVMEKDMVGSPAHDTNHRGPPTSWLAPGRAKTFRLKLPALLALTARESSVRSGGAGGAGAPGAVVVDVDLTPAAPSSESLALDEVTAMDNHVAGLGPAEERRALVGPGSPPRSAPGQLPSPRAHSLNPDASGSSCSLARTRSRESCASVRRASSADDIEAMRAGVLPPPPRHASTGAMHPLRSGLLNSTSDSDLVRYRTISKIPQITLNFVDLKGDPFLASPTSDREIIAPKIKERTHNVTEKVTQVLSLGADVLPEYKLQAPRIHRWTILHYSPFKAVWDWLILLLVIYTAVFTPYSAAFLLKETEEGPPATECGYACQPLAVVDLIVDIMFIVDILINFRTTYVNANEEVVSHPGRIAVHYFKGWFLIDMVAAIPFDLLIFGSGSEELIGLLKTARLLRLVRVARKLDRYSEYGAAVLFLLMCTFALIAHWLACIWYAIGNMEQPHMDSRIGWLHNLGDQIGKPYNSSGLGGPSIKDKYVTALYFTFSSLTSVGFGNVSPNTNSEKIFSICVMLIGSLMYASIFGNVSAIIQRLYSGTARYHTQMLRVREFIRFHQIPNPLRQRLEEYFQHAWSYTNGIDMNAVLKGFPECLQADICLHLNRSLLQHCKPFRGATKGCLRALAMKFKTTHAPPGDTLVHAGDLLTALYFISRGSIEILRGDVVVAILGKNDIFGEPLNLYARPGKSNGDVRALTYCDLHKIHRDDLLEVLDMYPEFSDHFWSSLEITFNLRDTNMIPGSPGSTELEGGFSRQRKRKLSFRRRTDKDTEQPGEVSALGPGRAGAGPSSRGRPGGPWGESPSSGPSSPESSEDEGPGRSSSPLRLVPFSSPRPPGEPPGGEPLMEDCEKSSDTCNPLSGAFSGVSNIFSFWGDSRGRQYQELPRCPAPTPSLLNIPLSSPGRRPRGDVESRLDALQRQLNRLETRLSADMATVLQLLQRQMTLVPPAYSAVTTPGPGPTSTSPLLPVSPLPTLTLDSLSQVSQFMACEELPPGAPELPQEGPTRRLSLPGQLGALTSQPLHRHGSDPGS

The assay addresses human ether-à-go-go-related gene (hERG) potassium channel (human, UniProt Q12809). Put plainly: primary screen, population patch clamp on CHO cells stably expressing hERG.
As for `COc1ccc(NC(=O)c2cc(-c3cccs3)on2)cc1OC`, the “hERG current change (%, negative = inhibition) at 1uM” value turned out to be 13.9%.
For the compound `c1ccc(CSCc2ccccc2)cc1`, the “hERG current change (%, negative = inhibition) at 1uM” value was 6.33%.
Take `CCOc1ccc(S(=O)(=O)Nc2ccc(C(=O)NN)cc2)cc1`: the “hERG current change (%, negative = inhibition) at 1uM” value amounted to 7.88%.
With `Cc1ccc2c(c1)N(CC(=O)NCCCN1CCOCC1)C(=O)c1cccnc1O2`, the “hERG current change (%, negative = inhibition) at 1uM” value is given as 3.79%.
The same measure for `CN(C)c1nc(Oc2ccc(OCCOc3ccccc3)nn2)nc(N(C)C)n1`: 6.49%; for `COc1cccc(-n2c(SCC(=O)N3CCc4ccccc43)nnc2-c2c[nH]c3ccccc23)c1`: 2.71%; for `C/C(=N\NC(=O)c1ccccc1O)c1ccc(NC(=O)c2ccccc2)cc1`: 12%.
Take `N=C1C(c2nc3ccccc3c(=O)[nH]2)=C(O)CN1CCO`: the “hERG current change (%, negative = inhibition) at 1uM” value was 17.8%.
The same measure for `COc1ccc(NC(=O)N2CCCC2C(=O)NC2CCCC2)cc1` (centres unmarked): 11.7%; for `O=C(NNc1nc2c(F)cccc2s1)c1cc(=O)c2ccccc2o1`: 11.1%.
Take `CN(CCC(=O)c1ccccc1)CCC(=O)c1ccccc1`: the “hERG current change (%, negative = inhibition) at 1uM” value is recorded as 6.51%.
With `CCOc1ccc(NS(=O)(=O)c2ccc(C(=O)N3CCCC(C)C3)cc2)cc1` (centres unmarked), the “hERG current change (%, negative = inhibition) at 1uM” value stood at 2.66%.
Regarding `COC(=O)c1oc2ccc(OC)cc2c1N`, the “hERG current change (%, negative = inhibition) at 1uM” value is listed as 14.9%.
The same measure for `S=C(NCCC(c1ccccc1)c1ccccc1)Nc1ccccc1Cl`: 11.7%.
Regarding `CN1CCN(c2ccc([N+](=O)[O-])c(N)c2)CC1`, the “hERG current change (%, negative = inhibition) at 1uM” value is on record as -12.3%.
The result for `O=C(NCCCN1CCOCC1)c1cccc(NC(=O)c2ccccc2)c1` reads 11.4%; that for `O=C(COc1ccc(S(=O)(=O)N2CCOCC2)cc1)NCc1ccccc1`, 15%.
For `COc1ccc(-n2nnnc2SCC(=O)N2CCCc3ccccc32)cc1OC`, the “hERG current change (%, negative = inhibition) at 1uM” value was 15.1%.
As for `NC(=O)c1cc(C(N)=O)nc(Cl)n1`, the “hERG current change (%, negative = inhibition) at 1uM” value turned out to be 15.1%.
The result for `CCN(CCn1cccn1)C(=O)CC1C(=O)NCCN1Cc1cc(OC)cc(OC)c1` (centres unmarked) reads 6.22%.
Consider `Cc1ccc(Nc2c(-c3ccc(C)o3)nc3ncccn23)cc1`, for which the “hERG current change (%, negative = inhibition) at 1uM” value is on record as -7.38%.
The result for `COC(=O)c1cc(S(=O)(=O)N2CCCCC2)c[nH]1` reads 16.1%; that for `CC(=O)c1ccc(S(=O)(=O)N2CCN(C(=O)c3ccc(-n4nc(C)c(Cl)c4C)cc3)CC2)cc1`, -9.13%; that for `COc1ccc(C2=NCC(=S)Nc3ccc(Cl)cc32)cc1OC`, -0.633%.
The result for `CC(=O)C1=C(O)C=C(c2ccco2)CC1c1ccco1` (centres unmarked) reads 5.15%; that for `O=c1nc(SCc2ccccc2Cl)nc(-c2ccc(Cl)cc2)[nH]1`, 8.5%; that for `CCNc1nc(NCC)nc(Nn2cnnc2)n1`, 3.61%.
Take `Cc1ccc(N/C=C(\C#N)S(=O)(=O)c2ccccc2)cc1`: the “hERG current change (%, negative = inhibition) at 1uM” value turned out to be 12.6%.
Consider `CS(=O)(=O)c1ccccc1-c1nnc(NC(=O)C2=COCCO2)o1`, for which the “hERG current change (%, negative = inhibition) at 1uM” value is given as 5.41%.
The result for `O=C(C1CCC(CNc2c(N3CCCCC3)c(=O)c2=O)CC1)N1CCCCC1` (centres unmarked) reads 9.59%; that for `COc1ccccc1NS(=O)(=O)c1cc(NC(=O)CCC(=O)c2cccs2)ccc1Cl`, -0.761%.
As for `O=C(CN1CCC(Cc2ccccc2)CC1)NCCc1ccc(F)cc1`, the “hERG current change (%, negative = inhibition) at 1uM” value is on record as -0.358%.
With `NC(=O)NS(=O)(=O)Oc1ccccc1`, the “hERG current change (%, negative = inhibition) at 1uM” value came out at 15.9%.
Turning to `Cl.NS(=O)(=O)c1ccc(CCNCc2cccs2)cc1`, the “hERG current change (%, negative = inhibition) at 1uM” value was found to be 4.5%.
`CCCN(CCC)CCCNC(=O)Cn1cnc2sc(C)c(S(=O)(=O)N3CCOCC3)c2c1=O`: the “hERG current change (%, negative = inhibition) at 1uM” value is 14%.
For the compound `COc1ccc(N2C(=NC(=O)C3CCCCC3)SC3CS(=O)(=O)CC32)c(OC)c1` (centres unmarked), the “hERG current change (%, negative = inhibition) at 1uM” value was -1.01%.
With `Cn1c(=O)oc2cc(S(=O)(=O)NCCN3CCc4ccccc4C3)ccc21`, the “hERG current change (%, negative = inhibition) at 1uM” value is recorded as 4.52%.
In the case of `COc1cccc(C(=O)C2CN(c3ccccc3)CC2c2ccc(Cl)cc2)c1` (centres unmarked), the “hERG current change (%, negative = inhibition) at 1uM” value turned out to be 10.7%.
As to `O=C(CN1CCN(S(=O)(=O)c2ccc(F)c(Cl)c2)CC1)N1CCNC1=O`, the “hERG current change (%, negative = inhibition) at 1uM” value is 10%.
For the compound `CN1CCN(S(=O)(=O)c2cccc(C(=O)Nc3ccccc3N3CCCC3)c2)CC1`, the “hERG current change (%, negative = inhibition) at 1uM” value was -0.886%.
Take `CCC(C)(C)NC(=O)CSc1nc(Cc2ccccc2)nc2ccccc12`: the “hERG current change (%, negative = inhibition) at 1uM” value is reported as 11.3%.
In the case of `O=C(C1CCCN(S(=O)(=O)c2ccc(F)cc2)C1)N1CCCCC1` (centres unmarked), the “hERG current change (%, negative = inhibition) at 1uM” value worked out at 11%.
With `Cc1nc(C)n(C(C)CNC(=O)c2ccco2)n1` (centres unmarked), the “hERG current change (%, negative = inhibition) at 1uM” value is given as 11.9%.
The result for `Cc1ccc(/C=C(/C#N)C(=O)NC(=O)Oc2ccccc2)cc1` reads 12.8%.
Regarding `CN(C(=O)CN1C(=O)S/C(=C\c2ccccc2)C1=O)C1CCS(=O)(=O)C1` (centres unmarked), the “hERG current change (%, negative = inhibition) at 1uM” value is on record as 14.7%.
As for `COc1ccc(-c2cc(C(=O)OCC(=O)Nc3cc(C)on3)c3ccccc3n2)cc1OC`, the “hERG current change (%, negative = inhibition) at 1uM” value is recorded as 5.22%.
As for `O=C(Nc1scc(-c2ccccc2)c1C(=O)O)c1ccco1`, the “hERG current change (%, negative = inhibition) at 1uM” value worked out at 12.6%.
The same measure for `O=C(NCCC1=CCCCC1)C(=O)NCc1ccccc1Cl`: -7.72%; for `Cc1ccccc1-n1ccnc1SCC(=O)NCC1CCCO1` (centres unmarked): 13.9%.
In the case of `Cc1ccc(-c2cc3ccccc3nc2N)cc1`, the “hERG current change (%, negative = inhibition) at 1uM” value was found to be 11.1%.
For `CSC(=Nc1ccccc1)c1c(O)n(C)c(=O)n(C)c1=O`, the “hERG current change (%, negative = inhibition) at 1uM” value was 7.67%.
The same measure for `Cc1ccc(OCC(=O)Nc2ccc(N3CCN(C(=O)c4ccco4)CC3)cc2)cc1C`: -0.75%; for `COc1ccccc1NC(=O)C(C)OC(=O)CN1C(=O)C2CC=CCC2C1=O` (centres unmarked): -21.8%; for `O=C(OCC(=O)N1CCN(C(=O)c2ccco2)CC1)c1cccc(O)c1`: 6.74%.
As to `COc1ccc(C2=NS(=O)(=O)N(C)C(C(=O)Nc3ccc4c(c3)OCO4)=C2)cc1`, the “hERG current change (%, negative = inhibition) at 1uM” value turned out to be 7.43%.
Regarding `COc1ccc(C2(c3ccc(OC(C)=O)cc3OC(C)=O)CC(c3ccccc3)NC(=S)N2)cc1` (centres unmarked), the “hERG current change (%, negative = inhibition) at 1uM” value was -9.81%.
The same measure for `N#Cc1cccc(NC(=O)Cn2cnc(S(=O)(=O)N3CCc4ccccc43)c2)c1`: 5.83%; for `COc1ccc(C2CC(=O)n3c(nc4ccccc43)S2)cc1OC` (centres unmarked): 12.9%; for `Cc1occc1C(=O)Nc1c(F)c(F)c(F)c(F)c1F`: -1.15%.
For the compound `CCCc1[nH]c2ccc(C(=O)OC)cc2c1CCC`, the “hERG current change (%, negative = inhibition) at 1uM” value was determined as 13%.
As for `CC(C)C(=O)N(c1ccc2oc(=O)sc2c1)S(=O)(=O)c1cccs1`, the “hERG current change (%, negative = inhibition) at 1uM” value is listed as 8.03%.
Regarding `CCCn1c(SCC#N)nc2c(c1=O)C1(CCCC1)Cc1ccccc1-2`, the “hERG current change (%, negative = inhibition) at 1uM” value was determined as 10.4%.
The same measure for `CCOc1c(Cl)cc(CNC(C)C(O)c2ccccc2)cc1OC.Cl` (centres unmarked): 4.13%; for `Cc1cc(C)c(C)c(OCCCN(C)C)c1.O=C(O)C(=O)O`: 6.99%; for `COc1cc2c(-c3ccc4cc[nH]c4c3)c(-c3ccsc3)oc(=O)c2cc1OC`: 9.06%.
Regarding `COc1ccc(C(NCC(=O)NC(C)c2ccc(Cl)cc2)c2ccccc2)cc1` (centres unmarked), the “hERG current change (%, negative = inhibition) at 1uM” value is reported as 12.3%.
In the case of `CCOc1cc(/C=C2/C(=N)N3C(=NC2=O)SN=C3S(=O)(=O)CC)ccc1OC(=O)c1ccco1`, the “hERG current change (%, negative = inhibition) at 1uM” value is recorded as 11.1%.
With `CCNC(=S)N1CCN(CCN=CC2=C(O)CC(C)(C)CC2=O)CC1`, the “hERG current change (%, negative = inhibition) at 1uM” value is -9.89%.
Consider `Nn1c(SCC(=O)NC2CCCc3ccccc32)nnc1-c1cccs1` (centres unmarked), for which the “hERG current change (%, negative = inhibition) at 1uM” value came to 7.63%.
As to `CCOc1ccccc1NC(=O)C1CCCN1C(=O)c1cccs1` (centres unmarked), the “hERG current change (%, negative = inhibition) at 1uM” value is 9.01%.
As to `Cc1ccc(S(=O)(=O)/N=C2/NC(=O)/C(=C\c3ccco3)S2)cc1`, the “hERG current change (%, negative = inhibition) at 1uM” value is given as 4.02%.
Take `N=C1c2ccccc2CN1c1ncccn1`: the “hERG current change (%, negative = inhibition) at 1uM” value amounted to 22.5%.
For the compound `CCOc1ccc(C(=O)Nc2ncn[nH]2)cc1`, the “hERG current change (%, negative = inhibition) at 1uM” value amounted to 15.7%.
Consider `COc1cccc(CC2(CO)CCN(Cc3cccn3-c3cccnc3)CC2)c1`, for which the “hERG current change (%, negative = inhibition) at 1uM” value is -6.04%.
Consider `Cc1c(C(=O)Nc2ccccc2F)sc2nc3n(c(=O)c12)CCC3`, for which the “hERG current change (%, negative = inhibition) at 1uM” value was 17.2%.
For the compound `N#CCCn1c(C2CCCCC2)nc2ccccc21`, the “hERG current change (%, negative = inhibition) at 1uM” value is reported as 2%.
The result for `CCN(CC)CCN(Cc1cc2cc(C)ccc2[nH]c1=O)C(=S)NCc1ccco1` reads 9.85%.
With `Cc1ccsc1C1C2=C(CCCC2=O)Nc2ncnn21` (centres unmarked), the “hERG current change (%, negative = inhibition) at 1uM” value is reported as 11.5%.
The result for `CCc1ccc2c(CC(=O)Nc3cccc(S(=O)(=O)N4CCOCC4)c3)coc2c1` reads 12.8%.
With `CC(C)c1ccc(NC(=S)N2CCN(S(=O)(=O)c3ccccc3)CC2)cc1`, the “hERG current change (%, negative = inhibition) at 1uM” value is 14.7%.
The same measure for `CCOCCCNC(=S)N1CCCC(c2nc3ccc(C)cc3[nH]2)C1` (centres unmarked): 4.49%.
For the compound `COc1ccc(Cn2c(=O)c3c(nc(NCCO)n3C)n(C)c2=O)cc1`, the “hERG current change (%, negative = inhibition) at 1uM” value is recorded as 6.91%.
Take `CCOC(=O)C1=C(c2ccccc2)Nc2nc(C)nn2C1c1cccc(OC)c1OC` (centres unmarked): the “hERG current change (%, negative = inhibition) at 1uM” value came to 8.11%.
Regarding `Cc1ccc(CC(NC(=O)c2ccccc2)C(=O)NC(Cc2ccccc2)C(=O)O)cc1` (centres unmarked) (Bz-[Phe(4-Me)]-Phe-OH; configuration not given here), the “hERG current change (%, negative = inhibition) at 1uM” value worked out at 6.59%.
In the case of `Cc1ccc(OC(=O)CCC(=O)N2CCc3ccccc32)cc1`, the “hERG current change (%, negative = inhibition) at 1uM” value came to 6.94%.
The result for `Cc1c(NS(=O)(=O)c2cc(C(=O)O)ccc2Cl)c(=O)n(-c2ccccc2)n1C` reads 17.2%; that for `Cc1cc(C)nc(SCCC(=O)Nc2cccc3ccccc23)n1`, -1.85%; that for `COc1ccccc1NC(=O)Nc1ccc(CC#N)cc1`, 13.7%.
The result for `O=C(CCNS(=O)(=O)c1ccccc1)NCCCSc1ccccc1` reads 5.69%.
